Measurements published in paper PMC4336329 (PLoS ONE, 2015).
Among all 310,000 compounds or so, about 14,000 (4.5%) showed an effect of 50% or more. The effect is printed as a negative number. This is one part of the list.

The compounds below were run against human ether-à-go-go-related gene (hERG) potassium channel (human, UniProt Q12809) (assay: primary screen, population patch clamp on CHO cells stably expressing hERG).
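Further: peak tail current of the secondary pulse compared with the same well before compound.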

Chain of human ether-à-go-go-related gene (hERG) potassium channel (Q12809 whole entry, looked up): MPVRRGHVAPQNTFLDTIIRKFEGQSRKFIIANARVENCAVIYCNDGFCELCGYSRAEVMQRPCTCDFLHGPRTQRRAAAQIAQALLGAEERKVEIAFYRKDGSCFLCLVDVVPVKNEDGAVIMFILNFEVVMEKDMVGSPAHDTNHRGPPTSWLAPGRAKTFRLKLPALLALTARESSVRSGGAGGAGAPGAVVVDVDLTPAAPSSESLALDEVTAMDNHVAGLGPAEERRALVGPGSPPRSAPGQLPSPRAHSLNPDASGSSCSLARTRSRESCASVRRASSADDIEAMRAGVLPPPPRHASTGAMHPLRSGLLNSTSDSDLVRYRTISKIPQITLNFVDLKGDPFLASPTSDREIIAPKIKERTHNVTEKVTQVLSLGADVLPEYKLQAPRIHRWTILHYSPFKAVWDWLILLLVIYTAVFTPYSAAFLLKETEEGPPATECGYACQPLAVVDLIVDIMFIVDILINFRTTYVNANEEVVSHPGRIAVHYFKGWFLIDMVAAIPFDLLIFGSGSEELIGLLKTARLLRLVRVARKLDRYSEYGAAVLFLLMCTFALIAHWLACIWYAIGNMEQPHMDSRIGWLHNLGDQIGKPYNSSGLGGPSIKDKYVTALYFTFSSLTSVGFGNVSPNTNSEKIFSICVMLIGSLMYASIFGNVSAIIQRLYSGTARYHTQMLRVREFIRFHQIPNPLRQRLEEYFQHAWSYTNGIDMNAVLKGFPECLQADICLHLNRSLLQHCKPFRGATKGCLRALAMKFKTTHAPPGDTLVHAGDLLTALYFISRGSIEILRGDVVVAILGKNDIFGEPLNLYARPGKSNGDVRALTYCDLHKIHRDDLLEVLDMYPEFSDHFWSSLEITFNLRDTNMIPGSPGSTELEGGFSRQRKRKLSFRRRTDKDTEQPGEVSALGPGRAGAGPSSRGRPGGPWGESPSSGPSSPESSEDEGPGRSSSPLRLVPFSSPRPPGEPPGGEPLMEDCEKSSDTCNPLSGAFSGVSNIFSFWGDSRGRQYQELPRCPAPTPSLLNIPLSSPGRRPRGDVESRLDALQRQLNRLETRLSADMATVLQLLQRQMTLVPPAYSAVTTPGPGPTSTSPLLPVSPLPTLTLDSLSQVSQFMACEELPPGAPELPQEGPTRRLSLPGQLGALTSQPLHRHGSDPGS

SMILES	hERG current change (%, negative = inhibition) at 10uM [%]
COc1ccc(/C=C/C(=O)NC(=S)NCc2ccccc2)cc1OC	10.7
CC(CC(F)(F)F)N1CCC(n2nccc2NC(=O)CCOc2ccccc2)CC1 (stereo not drawn)	-5.27
COCCn1c(=O)[nH]c(=O)c2cc(C(=O)c3cc(Cl)ccc3O)cnc21	-35.7
Cc1ccc(NS(=O)(=O)c2ccc(OCC(=O)NCC3CCCO3)cc2)cc1 (stereo not drawn)	-8.82
CC(C)c1ccc(NC(=O)COC(=O)/C=C/c2cccc([N+](=O)[O-])c2)cc1	6.88
CCCc1cc(=O)n2[nH]c(C)c(-c3ccc(OC)cc3)c2n1	-13.9
CCSc1nnc(-c2cccs2)o1	10.1
CCOC(=O)CSc1nc(N2CCOCC2)c2c(c1C#N)CC(C)(C)OC2	-38.5
Cl.c1ccc(CC2CNc3ccccc3CN2)cc1 (stereo not drawn)	2.14
Cn1c(C2CCCCC2)nc2ccccc21	-3.5
Cc1ccccc1NC1c2ccccc2C(=O)N1Cc1ccco1 (stereo not drawn)	-11.6
O=C(c1ccc2c(c1)OCO2)N1CCN(c2ccccc2F)CC1	-10.2
CCCCS/C(=C(/C#N)C(N)=O)c1cc2c([nH]1)CCCC2	-12.3
CCn1c(C)nc2cc(C(=O)N/N=C/c3ccc(OC)cc3)ccc21	-31.8
O=C(NCC1CCCO1)c1ccc(COc2ccccc2)cc1 (stereo not drawn)	-56.3
O=C(N=C1SC2CS(=O)(=O)CC2N1c1ccccc1)C1CC1 (stereo not drawn)	19.5
Cc1ccc(S(=O)(=O)N2CCCC(c3nc(-c4ccc(C)o4)no3)C2)cc1 (stereo not drawn)	-1.88
COc1ccccc1N1CCN(C2CCCN(C(=O)c3ccoc3C)C2)CC1 (stereo not drawn)	0.647
CCC(C)(C)NC(=O)C(c1ccc(OC)cc1)N(CC1CCCO1)C(=O)CCC(=O)Nc1cc(C)on1 (stereo not drawn)	-19.4

SMILES	hERG current change (%, negative = inhibition) at 10uM [%]
COc1cc(/C=N/Nc2ccccc2[N+](=O)[O-])cc(OC)c1O	1.15
O=C(/C=C/c1ccc(F)cc1)c1cc(Br)ccc1O	17.2
CC1CN(C(=O)c2cc3cc([N+](=O)[O-])ccc3s2)CC(C)O1 (stereo not drawn)	-19.3
CCOC(=O)[C@H]1[C@H]2COc3ccc(OC)cc3[C@@H]2N2C(=O)CN(CCc3c[nH]c4ccccc34)C(=O)[C@@]12C	-12.9
Cc1ccccc1C(=O)NNC(=O)c1ccc(Br)cc1	8.09
Cc1cnc(C(=O)OCC(=O)Nc2c(Cl)cc(Cl)cc2Cl)cn1	12.7
COc1cccc(OC)c1C(=O)Nc1ccc2nc(C)c(C)nc2c1	-4.75
COc1ccc(NC(=O)CCS(=O)(=O)c2ccc(OC)cc2)cc1	3.33
CCc1ccc(CNC(=O)c2ccc(OC3CCN(C(C)=O)CC3)c(OC)c2)nc1	8.11
CN(C)c1ccnc2sc(C(N)=O)c(N)c12	5.57
COC(=O)c1c(NC(=O)C2Cc3ccccc3C(=O)O2)sc2c1CCCC2 (stereo not drawn)	17.1
CC(=O)NC1C(=O)N=C(SCC(=O)NC(C)c2ccccc2)NC1=O (stereo not drawn)	18.1
O=C(COc1ccc(F)cc1)Nc1nc(-c2ccccn2)cs1	-6.59
CCOC(=O)CNC(=O)N1CCCC(CCC(=O)NCc2ccc(F)c(F)c2)C1 (stereo not drawn)	13.9
COc1ccccc1OCC(=O)NCCCN1CCOCC1	10.7
COc1ccccc1OCCCCNCCO	6.62
COc1ccccc1N1CCN(C2CCCN(C(=O)c3ccnc4ccc(C)cc34)C2)CC1 (stereo not drawn)	-17.8
CC(C)Cn1cc(C(=O)NCC2CCCO2)c2c3ccccc3n(C)c2c1=O (stereo not drawn)	0.13
O=C(CC1OC(=O)c2ccccc21)Nc1ccccc1N1CCOCC1 (stereo not drawn)	-9.97

SMILES	hERG current change (%, negative = inhibition) at 10uM [%]
CC1CCCN(Cc2nc(Cc3ccccc3Cl)no2)C1 (stereo not drawn)	4.32
COc1ccc(-n2c(=O)c3c(C)c(C)sc3n(Cc3cccc(F)c3)c2=O)c(OC)c1	17.2
COc1ccccc1N(CC(O)Cn1c2ccccc2c2ccccc21)S(=O)(=O)c1ccccc1 (stereo not drawn)	20.5
Nc1nnn(-c2ccccc2)c1-c1ccccc1	14.2
O=C(NCc1ccccc1)c1cccnc1Sc1ccccc1	18.3
CC(C)OC(=O)c1ccc(N2CCN(c3ccc(F)cc3)CC2)nc1	-6.87
O=C(COC(=O)CNS(=O)(=O)c1ccc(Br)cc1Cl)Nc1ccc(N2CCOCC2)cc1	-12.9
CN1N=C(C(=O)N2CCc3c([nH]c4ccccc34)C2c2ccccc2Cl)CCC1=O (stereo not drawn)	-36.9
COc1cc(C(=O)Nc2ccncc2)c([N+](=O)[O-])cc1OC	17.8
CC12CC3(C)CC(C)(C1)CC(C(=O)NC1=NCCS1)(C2)C3	-17.1
COc1ccccc1C(=O)C1CCCN(C(=O)c2ccccn2)C1 (stereo not drawn)	12.4
COc1ccc(C2C(C#N)=C(C)NC3=C2S(=O)(=O)c2ccccc23)cc1 (stereo not drawn)	-38.6
O=C(NCc1ccc(F)cc1)c1ccc(N2CCOCC2)c([N+](=O)[O-])c1	-39.6
CCOC(=O)c1c(CN2CCCCC2)oc2ccc(OC)cc12.Cl	-58.4
COc1cc(OC)cc(C(=O)Nc2ccc(-c3nc4ccccc4o3)cc2)c1	-12.9
O=c1cnnc(N/N=C/c2cccs2)[nH]1	13.5
O=C(NCc1ccco1)C1CCN(C(=O)c2ccc([N+](=O)[O-])cc2)CC1	-53
Cc1ccc(NC(=O)CSc2nc3c([nH]c4ccccc43)c(=O)n2C)cc1	8.54
Cc1cccc(Nc2nnc(SC/C(O)=C(\C#N)c3nc4ccccc4[nH]3)s2)c1	16.7
